{"source": "PubChem BioAssay AID686978", "about": "(National Center for Advancing Translational Sciences (NCATS), 2013)", "note": "Screen size: about 420,000 compounds; about 64,000 (15%) were called active. The shares of active, inactive and inconclusive entries below differ from those in the screen. Calls follow the shape of the dose curve; as a rule, active = well fitted inhibition curve with a large enough effect; inconclusive = small, poorly fitted or top-dose-only effect; inactive = flat fitted curve, though single readings scatter. Potencies of inconclusive entries are left out as doubtful fits. % is scaled to controls: 0 for no effect and ±100 for the full control effect; potency is read from the fitted curve at half-maximal effect; tags tell the direction and shape of the fitted curve.", "data": [{"experiment": "qHTS for Inhibitors of human tyrosyl-DNA phosphodiesterase 1 (TDP1): qHTS in cells in absence of CPT; also: nearly all actives have a fitted effect of over 55% in size", "conditions": "DT40 Tdp1-/- hTDP1 cells, no CPT, ATP luminescence, 48 h; activity change, negative = growth inhibition: at 46.2 µM (top of the series) unless noted", "how_it_was_run": "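Camptothecin absent (DMSO only). Human TDP1-complemented DT40 knockout cells, 400 cells/well, 37 °C for minimum 48 hr; ATP measured via CellTiter-Glo, 30 min dark incubation, luminescence.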", "values": [{"smiles": "CCOc1cc(NC(=O)C(C)C)c(OCC)cc1NC(=O)Nc1ccccc1", "Potency": "inconclusive [inhibitor, partial curve]"}, {"smiles": "O=C1NC(NS(=O)(=O)c2ccccc2)(C(F)(F)F)C(=O)N1c1cccc(Cl)c1", "note": "(stereo not given)", "Potency": "inactive"}, {"smiles": "COc1cccc(-c2nc(=S)c3c(n2Cc2ccco2)CCCC3)c1", "Potency": "inconclusive [inhibitor, single point]"}, {"smiles": "Cc1oc(/C=N/NC(=O)CN(c2ccccc2Cl)S(C)(=O)=O)cc1Br", "Potency": "inconclusive [inhibitor, single point]"}, {"smiles": "Cc1ccc(C)c(N2CCN(S(=O)(=O)c3cc(C(=O)Nc4cc(Cl)cc(Cl)c4)ccc3F)CC2)c1", "Potency": "active: 16.4 µM"}, {"smiles": "O=C1CCCCCC1C1(O)C(=O)Nc2ccccc21", "note": "(stereo not given)", "Potency": "inactive"}, {"smiles": "COC(=O)c1nc(NC(=O)c2cc(OC)c(OC)c(OC)c2)n[nH]1", "Potency": "inactive"}, {"smiles": "N#Cc1c(C(F)(F)F)cc(-c2cccs2)nc1SCc1cccnc1", "Potency": "inconclusive [inhibitor, single point]"}, {"smiles": "Cc1cccc(-c2nc(CSCC(=O)N3CCN(c4cccc(C)c4C)CC3)c(C)o2)c1", "Potency": "inconclusive [inhibitor, single point]"}, {"smiles": "CCc1ccc2c(c1)NC(c1cccnc1)=NC(c1ccc(C(C)(C)C)cc1)=N2", "Potency": "inconclusive [inhibitor, single point]"}, {"smiles": "Cc1ccc(Cl)cc1NC(=O)c1cc(S(=O)(=O)N2CCCCCC2)cn1C", "Potency": "inconclusive [inhibitor, single point]"}, {"smiles": "NC(=O)CCn1nc(-c2ccc(Cl)cc2)c2ccccc2c1=O", "Potency": "inconclusive [inhibitor, single point]"}, {"smiles": "COc1ccc(NN=Nc2nc3c([nH]2)c(=O)n(C)c(=O)n3C)cc1", "Potency": "inconclusive [inhibitor, single point]"}, {"smiles": "Cc1nc(N2CCN(Cc3ccc4c(c3)OCO4)CC2)c2cc(-c3ccccc3)sc2n1", "Potency": "active: 23.1 µM"}, {"smiles": "CCOC(=O)c1c(NCC(C)C)c2ccccc2[nH]c1=O", "Potency": "inconclusive [inhibitor, partial curve]"}, {"smiles": "C/C(CC(=O)NCc1ccccc1Cl)=N/NC(=O)c1ccccn1", "Potency": "inactive"}, {"smiles": "CCOc1ccccc1N1CCN(S(=O)(=O)c2ccc(F)c(F)c2)CC1", "activity change, negative = growth inhibition": "inconclusive: -32.8% [inhibitor]"}, {"smiles": "COc1cc(=O)oc(-c2ccccc2)c1C(C)=O", "Potency": "inactive"}, {"smiles": "CSc1nc(N(C)NC(=O)c2ccc(F)cc2)c2ccccc2n1", "Potency": "active: 0.731 µM"}, {"smiles": "CCC(CO)(CO)N(CC(=O)Nc1ccc(OC)cc1)CC(=O)Nc1ccc(OC)cc1", "Potency": "inactive"}, {"smiles": "O=C(CCC(=O)N/N=C/c1c[nH]c2ccccc12)NCc1ccccc1", "Potency": "inactive"}, {"smiles": "N=c1c(C(=O)NCc2ccccc2)cc2c(=O)n3ccccc3nc2n1Cc1ccco1", "Potency": "inconclusive [inhibitor, partial curve, poor fit]"}, {"smiles": "O=C(Nc1ccc(F)cc1F)c1sccc1SCc1cccc(C(F)(F)F)c1", "Potency": "inconclusive [inhibitor, partial curve]"}, {"smiles": "CN(C)c1ccc(C(CNS(=O)(=O)c2ccc([N+](=O)[O-])cc2)N2CCCC2)cc1", "note": "(stereo not given)", "Potency": "inconclusive [inhibitor, single point]"}, {"smiles": "CC(C)(C)C(=O)Nc1cccc(-c2cc(-c3c(Cl)cccc3Cl)no2)c1", "Potency": "inactive"}, {"smiles": "CC(C)c1cc(C(=O)OCC(=O)NC(=O)NCc2ccco2)c(O)c(C(C)C)c1", "Potency": "inconclusive [inhibitor, single point]"}, {"smiles": "CC(C)(C)c1ccc(OCCC(=O)OCC(=O)N2c3ccccc3NC(=O)C2(C)C)cc1", "Potency": "inconclusive [inhibitor, single point]"}, {"smiles": "O=C(Nc1nc(-c2ccccn2)cs1)c1cc(Cl)ccc1[N+](=O)[O-]", "Potency": "active: 1.46 µM"}, {"smiles": "CCOc1cc(-c2noc(CCC(=O)Nc3cccnc3)n2)ccc1OC", "Potency": "inconclusive [inhibitor, single point]"}, {"smiles": "CC(=O)N1CCc2c(sc(NC(=O)CCS(=O)(=O)c3ccc(C)cc3)c2C#N)C1", "Potency": "inconclusive [inhibitor, single point]"}, {"smiles": "CCN(c1ccccc1)c1nnc(NC(=O)Nc2ccc(C)cc2)s1", "Potency": "active: 16.4 µM"}, {"smiles": "CC(C)Oc1ccc(CSc2nnc3n(C)c(=O)c4c5c(sc4n23)CCCC5)cc1", "Potency": "inconclusive [inhibitor, single point]"}, {"smiles": "CCCOc1ccccc1N1C(=O)CC(N(O)c2ccccc2)C1=O", "note": "(stereo not given)", "Potency": "inconclusive [inhibitor, single point]"}, {"smiles": "NC(c1csc(Nc2cc(NCCCO)ncn2)n1)c1ccccc1Cl", "note": "(stereo not given)", "Potency": "inconclusive [inhibitor, single point]"}, {"smiles": "Cn1nc(C(F)(F)F)c(-c2cccc(C(F)(F)F)c2)c1NC(=O)Nc1ccc(F)cc1", "Potency": "active: 14.6 µM"}, {"smiles": "COc1ccc(OC)c(NC(=O)COC(=O)c2n[nH]c3ccccc23)c1", "Potency": "active: 16.4 µM"}, {"smiles": "COc1ccccc1N(C)S(=O)(=O)c1ccc(Cl)c(C(=O)NC2=NCCS2)c1", "Potency": "inactive"}, {"smiles": "CC12c3ccccc3C(c3ccccc31)C1C(=O)N(c3cccnc3)C(=O)C12", "note": "(stereo not given)", "Potency": "active: 14.6 µM"}, {"smiles": "O=C(CC12CC3CC(CC(C3)C1)C2)NCC(c1ccc(F)cc1)N1CCOCC1", "note": "(stereo not given)", "Potency": "inconclusive [inhibitor, single point]"}, {"smiles": "Cc1ccc(O)c(/C=N/NC(=O)Cc2ccc(Cl)cc2)c1", "Potency": "inconclusive [inhibitor, single point]"}, {"smiles": "O=C(Nc1ccc2c3c(cccc13)CC2)c1cccc([N+](=O)[O-])c1", "Potency": "inconclusive [inhibitor, partial curve, poor fit]"}, {"smiles": "CC(=O)c1ccc(OCc2cc(C(=O)N3CCN4CCCC4C3)no2)cc1", "note": "(stereo not given)", "Potency": "inconclusive [inhibitor, single point]"}, {"smiles": "c1cc[n+](CCCC[n+]2ccccc2)cc1", "Potency": "inactive"}, {"smiles": "CCOc1ccccc1C(=O)Nc1nnc(C(C)C)s1", "Potency": "inconclusive [inhibitor, single point]"}, {"smiles": "N#CCCCn1c(=O)oc2ccccc21", "Potency": "inactive"}]}]}
